The supplement of paper PMC8728848
Some of the results follow.

How the values were obtained:
Assay in all cases: glycan array binding signal (z-score within array); higher = stronger binding
Settings in all cases: glycan notation: IUPAC condensed, linker removed
[1] = molecular target: Gal(b1-3)GlcNAc(b1-3)Gal(b1-4)Glc
Summary of the method: (§1)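 Negative Z-scores can be read as non-binding. The Z-score is calculated within each array and then averaged across arrays of one protein sequence at different concentrations or buffers and across linkers. Arrays, 3228 in all, were curated from the Consortium for Functional Glycomics database and kept only where the protein sequence was available.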

[2] = molecular target: Gal(b1-3)GlcNAc(b1-3)Gal(b1-4)GlcNAc
Summary of the method: as §1

[3] = molecular target: Gal(b1-3)GlcNAc(b1-3)Gal(b1-4)GlcNAc(b1-2)Man(a1-3)[Gal(b1-3)GlcNAc(b1-3)Gal(b1-4)GlcNAc(b1-2)Man(a1-6)]Man(b1-4)GlcNAc(b1-4)GlcNAc
Summary of the method: as §1

[4] = molecular target: Gal(b1-3)GlcNAc(b1-3)Gal(b1-4)GlcNAc(b1-2)[Gal(b1-3)GlcNAc(b1-3)Gal(b1-4)GlcNAc(b1-6)]Man(a1-6)[Gal(b1-3)GlcNAc(b1-3)Gal(b1-4)GlcNAc(b1-2)Man(a1-3)]Man(b1-4)GlcNAc(b1-4)[Fuc(a1-6)]GlcNAc
Summary of the method: as §1

[5] = molecular target: Gal(b1-3)GlcNAc(b1-3)Gal(b1-4)GlcNAc(b1-3)Gal(b1-4)Glc
Summary of the method: as §1

[6] = molecular target: Gal(b1-3)GlcNAc(b1-3)Gal(b1-4)GlcNAc(b1-3)Gal(b1-4)GlcNAc(b1-2)[Gal(b1-3)GlcNAc(b1-3)Gal(b1-4)GlcNAc(b1-3)Gal(b1-4)GlcNAc(b1-6)]Man(a1-6)[Gal(b1-3)GlcNAc(b1-3)Gal(b1-4)GlcNAc(b1-3)Gal(b1-4)GlcNAc(b1-2)Man(a1-3)]Man(b1-4)GlcNAc(b1-4)[Fuc(a1-6)]GlcNAc
Summary of the method: as §1

[7] = molecular target: Gal(b1-3)GlcNAc(b1-3)Gal(b1-4)GlcNAc(b1-6)[Gal(b1-3)GlcNAc(b1-3)]Gal(b1-4)Glc
Summary of the method: as §1

[8] = molecular target: Gal(b1-3)GlcNAc(b1-3)Gal(b1-4)[Fuc(a1-3)]GlcNAc
Summary of the method: as §1

[9] = molecular target: Gal(b1-3)GlcNAc(b1-3)Gal(b1-4)[Fuc(a1-3)]GlcNAc(b1-3)Gal(b1-4)Glc
Summary of the method: as §1

[10] = molecular target: Gal(b1-3)GlcNAc(b1-3)Gal(b1-4)[Fuc(a1-3)]GlcNAc(b1-6)[Gal(b1-3)GlcNAc(b1-3)]Gal(b1-4)Glc
Summary of the method: as §1

[11] = molecular target: Gal(b1-3)GlcNAc(b1-3)GalNAc
Summary of the method: as §1

[12] = molecular target: Gal(b1-3)GlcNAc(b1-3)[Fuc(a1-3)[Gal(b1-4)]GlcNAc(b1-6)]Gal(b1-4)Glc
Summary of the method: as §1

[13] = molecular target: Gal(b1-3)GlcNAc(b1-3)[Fuc(a1-3)[Gal(b1-4)]GlcNAc(b1-6)]Gal(b1-4)]GlcNAc(b1-6)[Gal(b1-4)]GlcNAc(b1-3)]Gal(b1-4)Glc
Summary of the method: as §1

[14] = molecular target: Gal(b1-3)GlcNAc(b1-3)[Gal(b1-4)GlcNAc(b1-6)]Gal(b1-4)Glc
Summary of the method: as §1

[15] = molecular target: Gal(b1-3)GlcNAc(b1-3)[Gal(b1-4)GlcNAc(b1-6)]Gal(b1-4)GlcNAc(b1-6)[Gal(b1-3)GlcNAc(b1-3)]Gal(b1-4)Glc
Summary of the method: as §1

[16] = molecular target: Gal(b1-3)GlcNAc(b1-6)Gal(b1-4)GlcNAc
Summary of the method: as §1

[17] = molecular target: Gal(b1-3)GlcNAc(b1-6)GalNAc
Summary of the method: as §1

[18] = molecular target: Gal(b1-3)GlcNAc(b1-6)[Gal(b1-3)]GalNAc
Summary of the method: as §1

[19] = molecular target: Gal(b1-3)GlcNAc6S
Summary of the method: as §1

[20] = molecular target: Gal(b1-3)[Fuc(a1-4)]GlcNAc
Summary of the method: as §1

[21] = molecular target: Gal(b1-3)[Fuc(a1-4)]GlcNAc(b1-2)Man
Summary of the method: as §1

[22] = molecular target: Gal(b1-3)[Fuc(a1-4)]GlcNAc(b1-2)Man(a1-3)[Gal(b1-3)[Fuc(a1-4)]GlcNAc(b1-2)Man(a1-6)]Man(b1-4)GlcNAc(b1-4)GlcNAc
Summary of the method: as §1

[23] = molecular target: Gal(b1-3)[Fuc(a1-4)]GlcNAc(b1-2)Man(a1-3)[Gal(b1-3)[Fuc(a1-4)]GlcNAc(b1-2)Man(a1-6)]Man(b1-4)GlcNAc(b1-4)[Fuc(a1-6)]GlcNAc
Summary of the method: as §1

[24] = molecular target: Gal(b1-3)[Fuc(a1-4)]GlcNAc(b1-3)Gal(b1-3)[Fuc(a1-4)]GlcNAc
Summary of the method: as §1

[25] = molecular target: Gal(b1-3)[Fuc(a1-4)]GlcNAc(b1-3)Gal(b1-4)Glc
Summary of the method: as §1

[26] = molecular target: Gal(b1-3)[Fuc(a1-4)]GlcNAc(b1-3)Gal(b1-4)GlcNAc
Summary of the method: as §1

[27] = molecular target: Gal(b1-3)[Fuc(a1-4)]GlcNAc(b1-3)Gal(b1-4)[Fuc(a1-3)]Glc
Summary of the method: as §1

[28] = molecular target: Gal(b1-3)[Fuc(a1-4)]GlcNAc(b1-3)Gal(b1-4)[Fuc(a1-3)]GlcNAc
Summary of the method: as §1

[29] = molecular target: Gal(b1-3)[Fuc(a1-4)]GlcNAc(b1-3)Gal(b1-4)[Fuc(a1-3)]GlcNAc(b1-3)Gal(b1-4)Glc
Summary of the method: as §1

[30] = molecular target: Gal(b1-3)[Fuc(a1-4)]GlcNAc(b1-3)Gal(b1-4)[Fuc(a1-3)]GlcNAc(b1-6)[Gal(b1-3)[Fuc(a1-4)]GlcNAc(b1-3)]Gal(b1-4)Glc
Summary of the method: as §1

[31] = molecular target: Gal(b1-3)[Fuc(a1-4)]GlcNAc(b1-3)[Fuc(a1-3)[Gal(b1-4)]GlcNAc(b1-6)]Gal(b1-4)Glc
Summary of the method: as §1

[32] = molecular target: Gal(b1-3)[Fuc(a1-4)]GlcNAc(b1-6)GalNAc
Summary of the method: as §1

[33] = molecular target: Gal(b1-3)[GlcNAc(b1-6)]GalNAc
Summary of the method: as §1

[34] = molecular target: Gal(b1-3)[Neu5Ac(a2-6)]GalNAc
Summary of the method: as §1

[35] = molecular target: Gal(b1-3)[Neu5Ac(a2-6)]GlcNAc(b1-3)Gal(b1-4)Glc
Summary of the method: as §1

[36] = molecular target: Gal(b1-3)[Neu5Ac(a2-6)]GlcNAc(b1-4)Gal(b1-4)Glc
Summary of the method: as §1

[37] = molecular target: Gal(b1-3)[Neu5Ac(a2-6)]GlcNAc(b1-6)Gal(b1-4)Glc
Summary of the method: as §1

B1: PNA (Arachis hypogaea), P02872 (protein)
chain: MKPFCVFLTFFLLLAASSKKVDSAETVSFNFNSFSEGNPAINFQGDVTVLSNGNIQLTNLNKVNSVGRVLYAMPVRIWSSATGNVASFLTSFSFEMKDIKDYDPADGIIFFIAPEDTQIPAGSIGGGTLGVSDTKGAGHFVGVEFDTYSNSEYNDPPTDHVGIDVNSVDSVKTVPWNSVSGAVVKVTVIYDSSTKTLSVAVTNDNGDITTIAQVVDLKAKLPERVKFGFSASGSLGGRQIHLIRSWSFTSTLITTTRRSIDNNEKKIMNMASA
glycan array binding signal (z-score) [1]: 0.203
glycan array binding signal (z-score) [2]: -0.217
glycan array binding signal (z-score) [3]: -0.151
glycan array binding signal (z-score) [4]: -0.28
glycan array binding signal (z-score) [5]: 0.382
glycan array binding signal (z-score) [6]: -0.067
glycan array binding signal (z-score) [7]: 0.648
glycan array binding signal (z-score) [8]: -0.223
glycan array binding signal (z-score) [9]: 0.747
glycan array binding signal (z-score) [10]: 1.06
glycan array binding signal (z-score) [11]: -0.159
glycan array binding signal (z-score) [12]: 0.336
glycan array binding signal (z-score) [13]: 1.47
glycan array binding signal (z-score) [14]: 0.359
glycan array binding signal (z-score) [15]: 0.601
glycan array binding signal (z-score) [16]: -0.25
glycan array binding signal (z-score) [17]: -0.472
glycan array binding signal (z-score) [18]: 1.57
glycan array binding signal (z-score) [19]: -0.297
glycan array binding signal (z-score) [20]: -0.147
glycan array binding signal (z-score) [21]: -0.096
glycan array binding signal (z-score) [22]: -0.037
glycan array binding signal (z-score) [23]: -0.059
glycan array binding signal (z-score) [24]: -0.193
glycan array binding signal (z-score) [25]: -0.195
glycan array binding signal (z-score) [26]: -0.149
glycan array binding signal (z-score) [27]: -0.195
glycan array binding signal (z-score) [28]: -0.198
glycan array binding signal (z-score) [29]: -0.195
glycan array binding signal (z-score) [30]: -0.195
glycan array binding signal (z-score) [31]: -0.195
glycan array binding signal (z-score) [32]: -0.599
glycan array binding signal (z-score) [33]: 3.79
glycan array binding signal (z-score) [34]: 0.717
glycan array binding signal (z-score) [35]: 0.047
glycan array binding signal (z-score) [36]: -0.232
glycan array binding signal (z-score) [37]: -0.197
